In the supplement of paper PMC11417369:
The other results are listed elsewhere or left out.

Test system: PF3D7_0420300 AP2 domain 1 (GST-tagged)
Assay: gcPBM binding intensity (ln(normalized median fluorescence intensity)); higher = stronger DNA binding
In short: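 Binding intensity is the highest Masliner-normalised natural-log median intensity over replicate spots in either probe orientation. To obtain it, GST-tagged P. falciparum DNA-binding domains made in E. coli were incubated for 1 h on an Agilent 4 × 180k array of primer-extended double-stranded 36-bp intergenic genomic probes plus negative controls. Detection used Alexa488 anti-GST antibody with scanning at 488 nm.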

Row | Sequence | gcPBM binding intensity (ln)
1 | TACATAATACATATAACACACACAATTATACATAAA [CACACA_site9060] | 10
2 | CACATATATATGTGTGCATGTTGTATTATATATTTA [TGCATGCA_site632] | 9.72
3 | ATAATTACAAAATAAACACACATATAGATTTATATG [CACACA_site6343] | 9.6
4 | ATTTTATTTTTTAAAGGTACAGTTACAGCTTATATA [XGTACX_site7513] | 9.16
5 | GTACATATATACATTACACACGGTTTGATTTAAAAA [CACACA_site3379] | 9.45
6 | TCTTTTAAAAAAAAAGGAGGAACATAAAAAGTAGAA [XGTACX_negctrl_site272] | 9.35
7 | TGTTTCCAAAAAAAAAAAAAAAAAAAAAAAAAAAAA [CACACA_negctrl_site358] | 8.58
8 | AAAAAAACATGAAACACACACAAATATTTATTTATA [CACACA_site6967] | 9.83
9 | TTTTGTTTATTATGATTCAAAATGATTTTATCTTTG [TGCATGCA_negctrl_site425] | 8.99
10 | TATTATATATATAAATGTACTTATTTTAATTCCCCT [XGTACX_site8638] | 9.16
11 | TTTAATTTTTTTAATTCACACATTATTCCATCCTTT [CACACA_site5480] | 9.36
12 | AATAAATAAGCAACATGTACATACAAATATATACAT [XGTACX_site8529] | 9.64
13 | ATTTTCCATTGTGCTACACACAACGGTTCGCAATAA [CACACA_site2974] | 9.64
14 | ATCTAATAAAAATACACACACATATGATTTGTGAAT [CACACA_site1867] | 9.68
15 | TAAAAAAAATAGTCAAGTACATAAGAAGGGAAGAAA [XGTACX_site8733] | 9.46
16 | TTATTCATATTATCATGTACTTATATATATTGTCAT [XGTACX_site2231] | 9.36
17 | ACTAAAAGATATATAATTTCTTTCTTATTTATTTTT [CACACA_negctrl_site842] | 9.1
18 | TATATTTATAGGTACACACACACATATAAATAAATA [CACACA_site6345] | 10
19 | TTTATTAGTAATTATACACACATATAAAATGAATAA [CACACA_site6754] | 9.33
20 | ATAAAATTATATTTTGCATGCAGGCCTTTTTCTTAA [TGCATGCA_site1030] | 9.27
21 | AAAAAAAAAAAAAACACACACATATATATATATATA [CACACA_site1891] | 9.55
22 | TTCCAAACCTCATTATGGAAAATAAAAAAATAAAAA [XGTACX_negctrl_site17] | 8.94

Row | Sequence | gcPBM binding intensity (ln)
23 | TTCCAAAAAGTTATTACACACATATGTGCACATATA [CACACA_site6465] | 9.53
24 | ATAAAATATTTTTGAACATGCAGGTAAAAAATAAAA [TGCATGCA_site1019] | 9.27
25 | AGAATATTATATTATGCATGCATATAGAAAAATATA [TGCATGCA_site302] | 9.21
26 | TGTAATATAAAATTTTGTACTCAAAAATTTATATAT [XGTACX_site3252] | 8.9
27 | ACTTATAAAAACATATACCCCATCGCATTTTTTCCA [XGTACX_negctrl_site177] | 9.44
28 | AATTTTTTATATGTCACACATTTATTATTATTATTA [CACACA_site4198] | 9.53
29 | AGTATTCATAAAAATACACACATGGAAAAATAAACT [CACACA_site6796] | 9.78
30 | TATATATTTTTTTTTTGTACTCACAATATATGTATG [XGTACX_site8024] | 9.27
31 | AAATTAAAATATAATACACACATAAAAAAAAAAAAA [CACACA_site4183] | 9.73
32 | TGTATAAGTATTAATACACACACAAAATAATAAAAA [CACACA_site9156] | 9.8
33 | TACTTACATTATTTATTTATATAAAAAGTTAATTAT [XGTACX_negctrl_site433] | 9.01
34 | TATTTAAAAAGAAAAAAAAAAAAAAAAATACATATA [CACACA_negctrl_site164] | 9.16
35 | AAAAAAAAAAAATATACACACTAATATATTTTTTTA [CACACA_site4604] | 9.22
36 | TATATACGCAAACACACACACACATACACCCACATA [CACACA_site1724] | 10.2
37 | TATTAAATTTATCGGAGTACATTTAAATGTATATAC [XGTACX_site7975] | 9.1
38 | TATTACTATGTTATAACTTTTTTAAACGTGATCATA [TGCATGCA_negctrl_site128] | 9.11
39 | TATGTGTAATATTTTTGTACAGAAAAAAAAAAAAAA [XGTACX_site7075] | 8.93
40 | AAAAAAAAAAAAAACACACACATGCACATCATATTA [CACACA_site4467] | 9.64
41 | ATATTTTTATTAGTAGTGCAATTTAGTGTATATATA [GTGCAC_site9542] | 9.27
42 | TCATTTCACAGACACACACACACAATATATTTCCTT [CACACA_site9295] | 10.2
43 | AAAAAAAAAATTAAAACATGCATAAATAAATATATT [TGCATGCA_site866] | 9.41
44 | TTTTTTTTTCTTTTCAAACACACAATTGGTATATAT [CACACA_site3321] | 9.39
